Drawing on publication PMC5700166, this text covers binding signal for 15 sequences.

The list shows a part of the results, in another mix than the full data. The list includes weakly bound sequences.

Common to all, as to test: protein-binding microarray (PBM)
Conditions in all cases: PBM: ~300 nM protein, 6 mM HEPES pH 7.8, 80 mM KCl, 0.5 mM EDTA, 0.5 mM EGTA, 6% glycerol, 35 ng/ul poly-dIdC, 1% milk, 1 h, room temperature; Ap Aiptasia and Nv Nematostella (sea anemones) / Co Capsaspora / Aq Amphimedon (sponge) / Dm Drosophila / Hu human; RHD is the Rel homology domain; high values mean tight binding; most listed sequences are background and not binding sites; double strand, one strand shown

In experiment [1] the target is T1, GST-Ap-NF-kB RHD (UniProt A0A913YAJ5).
T1 sequence: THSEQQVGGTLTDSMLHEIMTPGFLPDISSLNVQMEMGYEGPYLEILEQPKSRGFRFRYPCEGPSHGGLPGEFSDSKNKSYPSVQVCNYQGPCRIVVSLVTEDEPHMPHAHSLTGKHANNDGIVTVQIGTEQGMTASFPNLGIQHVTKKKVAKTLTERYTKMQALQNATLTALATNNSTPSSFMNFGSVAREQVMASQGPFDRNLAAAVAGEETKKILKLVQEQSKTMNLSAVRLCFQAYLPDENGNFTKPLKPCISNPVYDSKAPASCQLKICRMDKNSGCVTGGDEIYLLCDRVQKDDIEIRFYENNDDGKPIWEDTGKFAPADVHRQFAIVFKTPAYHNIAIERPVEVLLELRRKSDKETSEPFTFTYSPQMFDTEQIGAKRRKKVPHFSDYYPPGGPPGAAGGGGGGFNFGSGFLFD

Experiment [2] has as its target T2, GST-Nv-NF-kB (Cys allele) (UniProt E5G601).
T2 sequence: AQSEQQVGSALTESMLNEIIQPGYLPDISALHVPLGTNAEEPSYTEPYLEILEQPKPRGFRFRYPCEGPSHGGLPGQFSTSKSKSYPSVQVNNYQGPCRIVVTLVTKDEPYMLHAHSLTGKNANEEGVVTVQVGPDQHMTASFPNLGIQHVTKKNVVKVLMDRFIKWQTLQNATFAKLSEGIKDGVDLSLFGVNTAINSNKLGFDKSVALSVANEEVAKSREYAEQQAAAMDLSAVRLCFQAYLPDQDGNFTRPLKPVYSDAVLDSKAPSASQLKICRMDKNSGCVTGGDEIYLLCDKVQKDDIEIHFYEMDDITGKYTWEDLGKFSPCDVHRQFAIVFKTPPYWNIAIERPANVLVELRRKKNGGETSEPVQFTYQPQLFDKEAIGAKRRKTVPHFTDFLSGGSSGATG

Experiment [3] concerns the target T3, GST-Co-NF-kB (UniProt F1ARL5).
T3 sequence: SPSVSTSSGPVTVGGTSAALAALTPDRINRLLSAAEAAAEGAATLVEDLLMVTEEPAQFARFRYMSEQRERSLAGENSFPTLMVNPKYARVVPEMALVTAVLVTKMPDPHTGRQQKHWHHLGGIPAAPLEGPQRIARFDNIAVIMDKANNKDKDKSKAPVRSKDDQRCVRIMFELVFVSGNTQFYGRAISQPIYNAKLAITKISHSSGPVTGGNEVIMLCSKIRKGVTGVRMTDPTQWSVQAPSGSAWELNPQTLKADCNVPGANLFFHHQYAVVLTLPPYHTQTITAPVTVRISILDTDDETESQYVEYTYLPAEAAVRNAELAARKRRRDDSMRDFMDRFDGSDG

Experiment [4] concerns the target T4, GST-Dm-Relish (UniProt Q94527).
T4 sequence: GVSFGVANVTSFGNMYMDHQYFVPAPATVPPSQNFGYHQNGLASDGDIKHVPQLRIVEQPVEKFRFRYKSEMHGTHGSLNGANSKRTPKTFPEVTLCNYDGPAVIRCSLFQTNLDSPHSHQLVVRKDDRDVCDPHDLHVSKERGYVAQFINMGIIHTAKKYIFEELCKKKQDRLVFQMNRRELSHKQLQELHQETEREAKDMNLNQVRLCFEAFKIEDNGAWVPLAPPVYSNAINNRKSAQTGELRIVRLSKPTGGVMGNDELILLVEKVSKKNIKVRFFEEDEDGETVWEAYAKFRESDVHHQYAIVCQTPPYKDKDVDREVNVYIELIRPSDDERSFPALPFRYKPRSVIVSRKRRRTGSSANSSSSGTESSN

For the sequence “CCGATTAACATCACGGGAATGCCTGATGTTAATCGGGTCTTGATTCGCTTGACGCTGCTG”, the binding signal in experiment [1] was 1.93 z-score; in experiment [2] it was 2.46 z-score; in experiment [3] it was 1.56 z-score; in experiment [4] it was 3.11 z-score.

For “CCGATTAACATCAAAATTCCGGATGATGTTAATCGGGTCTTGATTCGCTTGACGCTGCTG”, the binding signal in experiment [1] was 0.413 z-score; in experiment [2] it was -0.136 z-score; in experiment [3], -1.46 z-score; in experiment [4], 0.253 z-score.

Consider “CCGATTAACATCACGGATTTTCCTGATGTTAATCGGGTCTTGATTCGCTTGACGCTGCTG”, for which the binding signal in experiment [1] is -0.018 z-score; in experiment [2], -0.12 z-score; in experiment [3], 0.844 z-score; in experiment [4] it was 0.687 z-score.

For “CCGATTAACATCAGGAAAAGTCCTGATGTTAATCGGGTCTTGATTCGCTTGACGCTGCTG”, the binding signal was 0.415 z-score in experiment [1], 1.25 z-score in experiment [2], -0.767 z-score in experiment [3] and 2.98 z-score in experiment [4].

In the case of “CCGATTAACATCACGGAAAATCCTGATGTTAATCGGGTCTTGATTCGCTTGACGCTGCTG”, the binding signal was 0.121 z-score in experiment [1], -0.243 z-score in experiment [2], 0.671 z-score in experiment [3] and 1.04 z-score in experiment [4].

Take “CCGATTAACATCAAGAATTTTCCTGATGTTAATCGGGTCTTGATTCGCTTGACGCTGCTG”: the binding signal in experiment [1] stood at 0.109 z-score; in experiment [2], 0.254 z-score; in experiment [3], 0.384 z-score; in experiment [4], 0.249 z-score.

With “CCGATTAACATCAGGAAAAACCATGATGTTAATCGGGTCTTGATTCGCTTGACGCTGCTG”, the binding signal is 0.236 z-score in experiment [1], 0.0947 z-score in experiment [2], 0.125 z-score in experiment [3] and 2.39 z-score in experiment [4].

In the case of “CCGATTAACATCAGAGGATTTCCTGATGTTAATCGGGTCTTGATTCGCTTGACGCTGCTG”, the binding signal in experiment [1] was 0.464 z-score; in experiment [2], 0.00186 z-score; in experiment [3], -0.652 z-score; in experiment [4], 1.74 z-score.

On to “CCGATTAACATCAGGGGCTGTACTGATGTTAATCGGGTCTTGATTCGCTTGACGCTGCTG”, for which the binding signal in experiment [1] came out at 2.83 z-score; in experiment [2], 3.09 z-score; in experiment [3] it was 0.949 z-score; in experiment [4] it was 3.56 z-score.

For “CCGATTAACATCAGTGTCCCGTTTGATGTTAATCGGGTCTTGATTCGCTTGACGCTGCTG”, the binding signal in experiment [1] worked out at 0.859 z-score; in experiment [2], 2.18 z-score; in experiment [3], 0.354 z-score; in experiment [4], 0.11 z-score.

“CCGATTAACATCAGAAATTCCGCTGATGTTAATCGGGTCTTGATTCGCTTGACGCTGCTG”: the binding signal is 0.11 z-score in experiment [1], 0.373 z-score in experiment [2], -0.467 z-score in experiment [3] and 0.523 z-score in experiment [4].

For “CCGATTAACATCACGGATATTCCTGATGTTAATCGGGTCTTGATTCGCTTGACGCTGCTG”, the binding signal in experiment [1] is -0.189 z-score; in experiment [2], 0.132 z-score; in experiment [3], 0.536 z-score; in experiment [4] it was 0.37 z-score.

Consider “CCGATTAACATCAGGAATTCTCCTGATGTTAATCGGGTCTTGATTCGCTTGACGCTGCTG”, for which the binding signal in experiment [1] was -0.453 z-score; in experiment [2] it was 0.787 z-score; in experiment [3], -0.269 z-score; in experiment [4], 0.661 z-score.

Turning to “CCGATTAACATCAGGTAACTACCTGATGTTAATCGGGTCTTGATTCGCTTGACGCTGCTG”, the binding signal was 0.541 z-score in experiment [1], 0.779 z-score in experiment [2], -1.13 z-score in experiment [3] and 3.08 z-score in experiment [4].

Take “CCGATTAACATCACGGTCTTTCCTGATGTTAATCGGGTCTTGATTCGCTTGACGCTGCTG”: the binding signal is -0.0321 z-score in experiment [1], 0.0435 z-score in experiment [2], -0.339 z-score in experiment [3] and 0.699 z-score in experiment [4].
